Source: the RNAGym collection of RNA variant scans (doi:10.7554/elife.90254)
Read counts are not given, so values of variants with three or more changes are uncertain.

B1: LINE1-mini (parent)
chain: GGCAGAGCUCAACACAGCGUGGCAAAGUGGCUGUGGCUAGACUGCC

Variants of: B1
Assay: self-cleavage, relative activity (ratio to wild type); higher = more cleavage; in vitro, sequencing; the parent is a self-cleaving ribozyme

Variant | self-cleavage
C8A A14U G17A A39G | 0.36
G7U G27C A41C | 0.06
G7U G22U C23A | 0.04
G7U C15A C42A C45G | 0.4
G7U C10G A16C C37U | 0.03
G7U G17U U20G C23A G30A C37G | 0
C8A A11G U32G | 0.03
G7U G22A C31U A39G | 0.02
C8A A14G G33C A39G | 0.02
G7U C13A G22A G27A U38G | 0.02
G7U G27A C37A | 0.02
G7U G17U G27C | 0.03
C8A A11C A26G | 0.01
G7U C8A U38A C46U | 0.13
G7U G29A G44A | 0.4
G7U C15A A39C A41U | 0.09
G7U U9A A11C | 0.03
G7U C10G A25U C31A A41C | 0.02
G7U G44A C45G | 0.12
G7U C15U U20G U32G G36A | 0.39
G7U G21C G22A | 0.04

Variant | self-cleavage
G7U G17A A25C G27A G35A | 0.03
C8A A16G C46A | 0.04
G7U G21C U28C | 0.03
C8A A11C C37A | 0.01
G7U U20C A24G | 0.09
C8A A12G A25U | 0.01
G7U C15G G19U G35A | 0.01
G7U U9C C13U | 0.03
G7U G19C C45U | 0.04
C8A A14U A16U G35C A39C G44C C46A | 0.08
G7U U9G C10G G44C C45G | 0.01
C8A A12G C23A C37A | 0.12
G7U C10G C23G | 0.01
G7U C18U G44A | 0.43
G7U G30A C45G | 0.06
G7U C8G C13A | 0.38
C8A A16G C31A | 0.05
C8A A12G C13A C23U G36U | 0.06
G7U G17A C18A U20A A26U G30A | 0.04
C8A A11U U43G | 0.04
G7U C31A G36U | 0.04

Variant | self-cleavage
C8A A16G C23A U38A | 1.41
G7U G35A G36U C37U | 0.04
C8A A12U C13U C23G | 0.82
C8A A16U A24C | 0.13
G7U U9A A11U C23U G33U | 0.02
C8A A12C G21U C42G | 0.15
G7U U9G A14U G17A G35C | 0.23
G7U G19A U34C | 0.03
G7U C10U A12G C13U G27A | 0.04
G7U U9G C13U G22C G27C G33U C42G C46U | 0
G7U G19U G33A U38C | 0.07
G7U C31A G40C U43C G44C | 0.05
G7U C10A C42U G44A | 0.03
C8A A11G G35A | 0.04
C8A A11G G29U U34G | 0.04
C8A A12U C37U | 0.09
G7U G19A A24U C31G | 0.01
G7U U32A A41U U43C | 0.68
G7U C18A U28A C45A | 0.02
G7U U9C C15U A16C C23U | 0.08
C8A A14U G27U | 0.02

Variant | self-cleavage
G7U C15A U20A C46G | 0.1
G7U C15G C23U U43A | 0.45
G7U C8U C10G | 0.02
G7U C15A C23U A25G G27U C42U G44A | 0.18
C8A A16U A26U | 0.02
G7U C8A U20C | 0.05
G7U C10U C13A G19C A25U U38G A41U | 0.01
G7U C18U G40C C45G | 0.01
G7U G19A U20G U28G U32A | 0.01
C8A A12U A16C A26G U34A | 0.01
G7U C13G A41U | 0.13
G7U C23G A26U G29U | 0.02
G7U C13U U38A | 0.01
G7U C13G A16U C37G A41U | 0.04
G7U C8U U28A | 0.16
G7U G33A C37U C45U | 0.04
G7U G30U G36C | 0.04
C8A A11C A16C G22A A25G G29U U32A A41G | 0
C8A A12U A24C G30U | 0.13
G7U G22U C23U C42A | 0.06
G7U C8G U9A U38A | 0.16
